# Test results published in article PMC4336329 (PLoS ONE, 2015).
# In all, about 310,000 compounds went through this assay and about 2,200 (0.71%) showed an effect of 50% or more. The effect is printed as a negative number. This is one part of the list.
# Target: human ether-à-go-go-related gene (hERG) potassium channel (human, UniProt Q12809)
# Test: primary screen, population patch clamp on CHO cells stably expressing hERG
# Chain of human ether-à-go-go-related gene (hERG) potassium channel (Q12809 whole entry, looked up): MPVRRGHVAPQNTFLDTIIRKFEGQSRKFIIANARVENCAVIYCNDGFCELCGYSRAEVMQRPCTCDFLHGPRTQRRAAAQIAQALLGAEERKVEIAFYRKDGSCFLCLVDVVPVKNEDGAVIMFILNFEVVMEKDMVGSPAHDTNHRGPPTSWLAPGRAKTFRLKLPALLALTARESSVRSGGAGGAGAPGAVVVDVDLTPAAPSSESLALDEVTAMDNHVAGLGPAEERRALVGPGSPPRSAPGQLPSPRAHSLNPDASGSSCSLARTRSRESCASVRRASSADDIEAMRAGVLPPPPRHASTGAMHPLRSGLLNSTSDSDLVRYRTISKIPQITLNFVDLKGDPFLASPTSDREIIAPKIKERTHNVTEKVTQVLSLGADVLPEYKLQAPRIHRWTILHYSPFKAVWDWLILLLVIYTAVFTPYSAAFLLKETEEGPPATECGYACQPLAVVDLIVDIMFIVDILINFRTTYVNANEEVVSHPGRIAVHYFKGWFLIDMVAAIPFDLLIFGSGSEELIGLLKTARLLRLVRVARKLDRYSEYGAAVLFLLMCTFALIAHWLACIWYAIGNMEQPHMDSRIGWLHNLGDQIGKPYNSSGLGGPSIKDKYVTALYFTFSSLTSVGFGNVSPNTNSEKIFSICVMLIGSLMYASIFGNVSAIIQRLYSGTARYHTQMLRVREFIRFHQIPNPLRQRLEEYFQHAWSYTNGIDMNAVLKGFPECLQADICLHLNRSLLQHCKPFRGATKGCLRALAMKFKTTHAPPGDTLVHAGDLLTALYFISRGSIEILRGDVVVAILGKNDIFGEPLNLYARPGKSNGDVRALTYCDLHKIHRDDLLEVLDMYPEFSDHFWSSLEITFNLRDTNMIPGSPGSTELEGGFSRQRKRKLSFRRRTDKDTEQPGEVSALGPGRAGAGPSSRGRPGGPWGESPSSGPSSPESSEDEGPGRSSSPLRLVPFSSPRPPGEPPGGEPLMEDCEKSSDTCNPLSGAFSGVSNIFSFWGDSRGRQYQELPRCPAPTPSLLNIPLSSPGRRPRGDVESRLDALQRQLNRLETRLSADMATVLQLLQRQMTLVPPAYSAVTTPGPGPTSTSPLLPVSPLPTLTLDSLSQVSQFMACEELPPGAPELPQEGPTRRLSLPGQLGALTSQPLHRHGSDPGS
row,Structure (SMILES),"hERG current change (%, negative = inhibition) at 1uM [%]"
1,O=C(NCc1ccco1)c1c2c(nc3ccccc13)CCC2,3.32
2,Cc1cc2cc(CN(Cc3ccco3)C(=S)NCC3CCCO3)c(=O)[nH]c2cc1C (stereo not drawn),7.73
3,COc1ccc(-n2ccnc2SCC(=O)NC2CCCC2)cc1,6.16
4,Cc1cc(C(=O)OCC(=O)N2CCc3ccccc32)ccc1[N+](=O)[O-],0.444
5,O=C(O)C1=CC[C@@H](c2ccc(Cl)cc2)N(S(=O)(=O)c2ccc(Cl)cc2)[C@H]1c1cccc(Cl)c1,17.4
6,Cl.c1ccc(SCCN2CCN(c3ccccc3)CC2)cc1,13.7
7,COc1ccccc1C(=O)NCC(=O)N1CCN(S(=O)(=O)c2ccc3c(c2)OCCO3)CC1,10.5
8,CS(=O)(=O)N(CC(=O)N1CCN(c2ccccc2)CC1)Cc1ccc(Cl)cc1,-3.3
9,O=C(CSc1nnc(-c2ccccc2Cl)o1)N1CCCCC1,-0.0555
10,OCC1(CCOc2ccccc2)CCN(C2Cc3ccccc3C2)CC1,-11.9
11,CCCCCn1c(=N)n(CC(O)COc2ccccc2OC)c2ccccc21 (stereo not drawn),-82.8
12,Cc1ncc(S(=O)(=O)c2ccccc2)c(-c2ccc(Cl)cc2Cl)n1,15.7
13,COc1cc([N+](=O)[O-])cc2cc(C(=O)N3CCCC3)c(=O)oc12,11
14,CC(C)(C)c1ccc(N2C(=O)Cc3c2nc(N)c(C#N)c3N)cc1,9.36
15,Cc1ccc(S(=O)(=O)N2CCN(C(=O)C3CCCC3)CC2)cc1C,12.4
16,COc1cccc(C(Nc2ccccn2)c2c(NC(=O)c3ccco3)sc(C)c2C)c1 (stereo not drawn),13.4
17,Cc1cnc(NC(=O)Cn2cnc3c2c(=O)n(C)c(=O)n3C)s1,9.38
18,COCCn1c(C)cc(/C=C(\C#N)C(=O)OC(C)C(=O)Nc2ccc(NC(C)=O)cc2)c1C (stereo not drawn),13.7
19,O=C(c1cc2ccccc2o1)N1CCN(C/C=C/c2ccccc2)CC1,3.82
20,C=CCn1c(SCc2nc3ccccc3nc2C)nnc1-c1ccoc1C,5.43
21,CCc1ccccc1NC(=O)CCc1c(C)nn(-c2ccc(N3CCOCC3)nn2)c1C,3.5

row,Structure (SMILES),"hERG current change (%, negative = inhibition) at 1uM [%]"
1,COc1ccc(S(=O)(=O)N(CCc2ccccc2)CC(=O)O)cc1Cl,-6.62
2,CC(=O)NS(=O)(=O)c1ccc(NC(=O)c2cc(-c3ccc(C)c(C)c3)nc3ccccc23)cc1,10.9
3,CC(=O)OC(Cn1nc(C)cc1C)c1ccccc1 (stereo not drawn),11.4
4,COc1ccc(OC)c(NC(=O)NC2(C(F)(F)F)Oc3ccccc3O2)c1,2.38
5,CCOC(=O)Cn1c(=O)c2c(nc3n2CCN3Cc2ccccc2)n(C)c1=O,1.59
6,COCCNC(=O)C(=O)NCCN1CCNCC1.O,14.7
7,O=C(O)C(=O)O.O=C(c1cccs1)N1CCN(C2CCCCC2)CC1,-8.61
8,C[n+]1cccc2ccc3c(c21)OC(N)=C(C#N)C3c1ccccc1.[I-] (stereo not drawn),-2.67
9,CC(C)N1CCN(Cc2ccoc2)CC1CCO (stereo not drawn),16.1
10,Cc1nc(-c2ccc(S(=O)(=O)Nc3cc(F)ccc3F)cc2)co1,12.7
11,Cc1nc(-c2nnc(SCC(=O)Nc3cc(Cl)cc(Cl)c3)n2C)cs1,10.6
12,COc1cc(N2CCCC2)c(OC)cc1/C=C(/C#N)c1cccc(F)c1,10.7
13,COC(=O)c1cc(S(=O)(=O)N2CCN(Cc3ccccc3)CC2)c[nH]1,14.1
14,O=C(Nc1ccccc1)C1Cc2ccccc2CN1C(=O)c1ccco1 (stereo not drawn),15.9
15,COc1cc(NC(=O)c2ccc3c(c2)OCCO3)ccc1NC(=O)c1ccccc1Cl,13.7
16,CCCCC(OC(=O)CN1C(=O)COc2ccccc21)C(=O)NC1CCCCC1 (stereo not drawn),1.92
17,COc1cc(/C=N/NC(=O)c2ccc(CSc3nc4ccccc4[nH]3)cc2)ccc1O,15.4
18,O=C(NC(=S)NCc1ccc(-c2nc3ccccc3s2)cc1)c1ccco1,17.1
19,CCOc1ccc(S(=O)(=O)N2CCC(C(=O)NCc3ccco3)CC2)cc1C,8.98
20,O=C(Nc1ccccc1Cl)C1CCCN(c2ncnc3c2nc2n3CCCCC2)C1 (stereo not drawn),10.2
21,COc1ccc(CCNC(=S)N2CCN(S(=O)(=O)c3ccc(C)cc3)CC2)cc1,17.9
